According to ChEMBL document CHEMBL4043168, “The design and SAR of a novel series of 2-aminopyridine based LRRK2 inhibitors” (Bioorg Med Chem Lett, 2017):

How the values were obtained:
[1] = target: Mitogen-activated protein kinase 14 (Homo sapiens) (UniProt Q16539); test: Inhibition of p38a (QELNKTIWEVPER) in human PBMC at 1 uM
[2] = target: Interferon-induced, double-stranded RNA-activated protein kinase (Homo sapiens) (UniProt P19525); test: Inhibition of PKR conserved Lys2 (DLKPSNIFLVDTK) in human PBMC at 1 uM
[3] = organism: Homo sapiens; test: Inhibition of p70S6K ATP binding site (GGYGKVFQVR) in human PBMC at 1 uM
[4] = target: Mitogen-activated protein kinase kinase kinase kinase 1 (Homo sapiens) (UniProt Q92918); test: Inhibition of HPK1 conserved Lys2 (DIKGANILINDAGEVR) in human PBMC at 1 uM
[5] = target: Mitogen-activated protein kinase 14 (Homo sapiens) (UniProt Q16539); test: Inhibition of p38a conserved Lys2 (DLKPSNLAVNEDCELK) in human PBMC at 0.1 uM
[6] = target: 5'-AMP-activated protein kinase catalytic subunit alpha-1 (Homo sapiens) (UniProt Q13131); test: Inhibition of AMPKa1 labeling at conserved Lys2 (DLKPENVLLDAHMNAK) in human PBMC at 0.1 uM
[7] = target: Serine/threonine-protein kinase Nek9 (Homo sapiens) (UniProt Q8TD19); test: Inhibition of NEK9 conserved Lys1 (RTEDDSLVVWKEVDLTR) in human PBMC at 1 uM
[8] = target: Tyrosine-protein kinase ABL2 (Homo sapiens) (UniProt P42684); test: Inhibition of ARG labeling at conserved Lys1 (LMTGDTYTAHAGAKFPIK) in human PBMC at 0.1 uM
[9] = target: Serine/threonine-protein kinase Sgk2 (Homo sapiens) (UniProt Q9HBY8); test: Inhibition of SGK2 conserved Lys1 (FYAVKVLQK) in human PBMC at 1 uM
[10] = target: Cyclin-dependent kinase 1 (Homo sapiens) (UniProt P06493); test: Inhibition of CDC2 labeling at conserved Lys2 (DLKPQNLLIDDK) in human PBMC at 1 uM
[11] = target: Cyclin-dependent kinase 18 (Homo sapiens) (UniProt Q07002); test: Inhibition of PCTAIRE3 conserved Lys2 (DLKPQNLLINER) in human PBMC at 0.1 uM
[12] = target: Ribosomal protein S6 kinase alpha-3 (Homo sapiens) (UniProt P51812); test: Inhibition of RSK2 domain2 conserved Lys2 (DLKPSNILYVDESGNPESIR) in human PBMC at 0.1 uM
[13] = target: Cyclin-dependent kinase 16 (Homo sapiens) (UniProt Q00536); test: Inhibition of PCTAIRE1 conserved Lys2 (DLKPQNLLINER) in human PBMC at 0.1 uM
[14] = target: Ribosomal protein S6 kinase alpha-1 (Homo sapiens) (UniProt Q15418); test: Inhibition of RSK1 domain1 activation Loop (LTDFGLSKEAIDHEKK) in human PBMC at 1 uM
[15] = target: Interferon-induced, double-stranded RNA-activated protein kinase (Homo sapiens) (UniProt P19525); test: Inhibition of PKR activation Loop (IGDFGLVTSLKNDGKR) in human PBMC at 0.1 uM
[16] = target: Cyclin-dependent kinase 1 (Homo sapiens) (UniProt P06493); test: Inhibition of CDC2 labeling at conserved Lys2 (DLKPQNLLIDDKGTIK) in human PBMC at 1 uM
[17] = target: Mitogen-activated protein kinase 7 (Homo sapiens) (UniProt Q13164); test: Inhibition of Erk5 conserved Lys2 (DLKPSNLLVNENCELK) in human PBMC at 0.1 uM
[18] = target: Tyrosine-protein kinase Fyn (Homo sapiens) (UniProt P06241); test: Inhibition of FYN activation Loop (QGAKFPIKWTAPEAALYGR) in human PBMC at 1 uM
[19] = target: Mitogen-activated protein kinase 10 (Homo sapiens) (UniProt P53779); test: Inhibition of JNK3 conserved Lys2 (DLKPSNIVVK) in human PBMC at 1 uM
[20] = target: Dual specificity mitogen-activated protein kinase kinase 5 (Homo sapiens) (UniProt Q13163); test: Inhibition of MAP2K5 conserved Lys2 (DVKPSNMLVNTR) in human PBMC at 1 uM
[21] = target: Misshapen-like kinase 1 (Homo sapiens) (UniProt Q8N4C8); test: Inhibition of ZC3/MINK conserved Lys2 (DIKGQNVLLTENAEVK) in human PBMC at 1 uM
[22] = target: Serine/threonine-protein kinase mTOR (Homo sapiens) (UniProt P42345); test: Inhibition of FRAP conserved Lys1 (IQSIAPSLQVITSKQRPR) in human PBMC at 1 uM
[23] = target: 5'-AMP-activated protein kinase catalytic subunit alpha-2 (Homo sapiens) (UniProt P54646); test: Inhibition of AMPKa2 labeling at conserved Lys2 (DLKPENVLLDAHMNAK) in human PBMC at 0.1 uM
[24] = target: RAC-gamma serine/threonine-protein kinase (Homo sapiens) (UniProt Q9Y243); test: Inhibition of AKT3 labeling at conserved Lys1 (IGHYILGDTLGVGTFGKVK) in human PBMC at 1 uM
[25] = target: Ribosomal protein S6 kinase alpha-3 (Homo sapiens) (UniProt P51812); test: Inhibition of RSK2 domain1 ATP binding site (VLGQGSFGKVFLVK) in human PBMC at 1 uM
[26] = target: Calcium/calmodulin-dependent protein kinase type II subunit gamma (Homo sapiens) (UniProt Q13555); test: Inhibition of CaMK2g labeling at conserved Lys1 (TSTQEYAAKIINTK) in human PBMC at 1 uM
[27] = target: Cyclin-dependent kinase 7 (Homo sapiens) (UniProt P50613); test: Inhibition of CDK7 labeling at conserved Lys2 (DLKPNNLLLDENGVLK) in human PBMC at 0.1 uM
[28] = target: Mitogen-activated protein kinase kinase kinase 3 (Homo sapiens) (UniProt Q99759); test: Inhibition of MAP3K3 conserved Lys2 (DIKGANILR) in human PBMC at 1 uM
[29] = target: TRAF2 and NCK-interacting protein kinase (Homo sapiens) (UniProt Q9UKE5); test: Inhibition of ZC2/TNIK conserved Lys2 (DIKGQNVLLTENAEVK) in human PBMC at 1 uM

UniProt P06493, sequence (P06493 whole entry, looked up): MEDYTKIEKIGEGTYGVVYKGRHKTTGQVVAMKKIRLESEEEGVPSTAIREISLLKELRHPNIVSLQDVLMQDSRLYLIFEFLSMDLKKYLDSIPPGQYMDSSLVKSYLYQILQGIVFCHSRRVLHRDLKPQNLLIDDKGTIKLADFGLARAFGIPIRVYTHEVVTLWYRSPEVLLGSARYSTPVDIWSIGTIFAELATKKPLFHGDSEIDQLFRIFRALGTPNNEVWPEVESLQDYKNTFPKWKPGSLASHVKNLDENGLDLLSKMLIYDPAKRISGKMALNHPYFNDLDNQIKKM
UniProt P19525, sequence (P19525 whole entry): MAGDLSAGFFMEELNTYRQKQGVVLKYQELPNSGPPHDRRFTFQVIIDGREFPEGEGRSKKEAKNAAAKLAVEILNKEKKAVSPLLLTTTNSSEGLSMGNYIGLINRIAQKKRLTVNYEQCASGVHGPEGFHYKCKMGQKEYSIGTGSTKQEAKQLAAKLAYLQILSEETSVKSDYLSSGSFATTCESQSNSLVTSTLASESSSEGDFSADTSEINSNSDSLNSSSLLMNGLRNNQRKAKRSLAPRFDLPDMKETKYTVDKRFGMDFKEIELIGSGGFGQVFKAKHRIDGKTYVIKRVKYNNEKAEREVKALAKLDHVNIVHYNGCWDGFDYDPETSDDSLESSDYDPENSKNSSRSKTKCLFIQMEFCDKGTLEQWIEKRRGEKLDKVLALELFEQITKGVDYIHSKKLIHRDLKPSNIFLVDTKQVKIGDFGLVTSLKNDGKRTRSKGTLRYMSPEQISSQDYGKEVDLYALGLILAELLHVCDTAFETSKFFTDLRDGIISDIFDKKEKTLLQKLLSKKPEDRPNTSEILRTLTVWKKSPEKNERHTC
UniProt Q16539, sequence (Q16539 whole entry): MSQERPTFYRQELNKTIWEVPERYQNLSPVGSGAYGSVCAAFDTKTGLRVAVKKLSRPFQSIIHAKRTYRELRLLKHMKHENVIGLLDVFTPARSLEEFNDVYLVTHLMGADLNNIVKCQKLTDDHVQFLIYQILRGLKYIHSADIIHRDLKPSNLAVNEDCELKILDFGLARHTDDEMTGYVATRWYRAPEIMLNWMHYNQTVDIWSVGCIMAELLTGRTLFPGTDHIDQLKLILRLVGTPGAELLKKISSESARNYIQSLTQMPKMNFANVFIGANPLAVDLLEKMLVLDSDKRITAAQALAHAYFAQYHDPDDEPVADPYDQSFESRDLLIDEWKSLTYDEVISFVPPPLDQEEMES
UniProt P51812, sequence (P51812 whole entry, the tested form may be a part): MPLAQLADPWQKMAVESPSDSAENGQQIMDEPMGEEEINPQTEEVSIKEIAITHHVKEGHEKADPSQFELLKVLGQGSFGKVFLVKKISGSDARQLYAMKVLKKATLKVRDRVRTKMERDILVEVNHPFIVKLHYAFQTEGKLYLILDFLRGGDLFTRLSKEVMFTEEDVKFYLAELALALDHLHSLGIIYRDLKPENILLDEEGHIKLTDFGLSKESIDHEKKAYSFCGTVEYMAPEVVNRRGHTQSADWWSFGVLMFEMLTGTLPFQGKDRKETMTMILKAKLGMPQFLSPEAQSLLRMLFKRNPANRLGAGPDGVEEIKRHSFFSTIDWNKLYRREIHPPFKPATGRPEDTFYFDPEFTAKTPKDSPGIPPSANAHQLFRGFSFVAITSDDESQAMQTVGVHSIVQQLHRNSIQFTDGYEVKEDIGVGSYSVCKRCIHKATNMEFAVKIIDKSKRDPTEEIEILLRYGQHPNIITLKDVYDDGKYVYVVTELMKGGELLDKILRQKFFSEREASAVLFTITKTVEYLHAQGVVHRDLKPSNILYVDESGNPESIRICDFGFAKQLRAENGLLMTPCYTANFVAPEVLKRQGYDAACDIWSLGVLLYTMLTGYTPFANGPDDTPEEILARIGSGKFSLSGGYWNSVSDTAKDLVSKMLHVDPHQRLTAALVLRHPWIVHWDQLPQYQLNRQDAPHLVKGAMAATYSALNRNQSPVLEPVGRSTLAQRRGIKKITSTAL
UniProt Q9HBY8, sequence (Q9HBY8 whole entry): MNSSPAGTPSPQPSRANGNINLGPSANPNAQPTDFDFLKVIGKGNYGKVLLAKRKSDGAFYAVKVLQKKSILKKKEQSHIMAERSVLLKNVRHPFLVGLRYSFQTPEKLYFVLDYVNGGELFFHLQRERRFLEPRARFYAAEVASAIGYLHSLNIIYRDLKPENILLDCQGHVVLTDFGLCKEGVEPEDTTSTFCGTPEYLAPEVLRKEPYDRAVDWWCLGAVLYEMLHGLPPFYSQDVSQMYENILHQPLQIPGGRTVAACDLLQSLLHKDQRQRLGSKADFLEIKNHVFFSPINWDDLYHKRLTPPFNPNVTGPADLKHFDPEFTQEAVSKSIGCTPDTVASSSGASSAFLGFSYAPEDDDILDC
UniProt Q07002, sequence (Q07002 whole entry, the tested form may be a part): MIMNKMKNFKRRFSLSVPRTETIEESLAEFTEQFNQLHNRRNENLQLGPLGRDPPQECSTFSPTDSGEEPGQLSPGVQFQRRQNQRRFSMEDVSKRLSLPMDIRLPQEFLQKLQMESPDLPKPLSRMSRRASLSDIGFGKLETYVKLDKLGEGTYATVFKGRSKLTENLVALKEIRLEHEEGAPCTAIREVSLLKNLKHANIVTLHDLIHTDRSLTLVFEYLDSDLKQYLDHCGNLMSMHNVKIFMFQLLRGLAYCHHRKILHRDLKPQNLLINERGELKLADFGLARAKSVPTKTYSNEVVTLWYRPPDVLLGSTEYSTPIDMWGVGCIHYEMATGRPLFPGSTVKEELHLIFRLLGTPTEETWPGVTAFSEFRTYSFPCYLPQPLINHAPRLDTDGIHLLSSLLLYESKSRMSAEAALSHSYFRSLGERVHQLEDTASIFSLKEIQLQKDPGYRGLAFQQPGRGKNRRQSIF
UniProt Q8N4C8, sequence (Q8N4C8 whole entry, looked up): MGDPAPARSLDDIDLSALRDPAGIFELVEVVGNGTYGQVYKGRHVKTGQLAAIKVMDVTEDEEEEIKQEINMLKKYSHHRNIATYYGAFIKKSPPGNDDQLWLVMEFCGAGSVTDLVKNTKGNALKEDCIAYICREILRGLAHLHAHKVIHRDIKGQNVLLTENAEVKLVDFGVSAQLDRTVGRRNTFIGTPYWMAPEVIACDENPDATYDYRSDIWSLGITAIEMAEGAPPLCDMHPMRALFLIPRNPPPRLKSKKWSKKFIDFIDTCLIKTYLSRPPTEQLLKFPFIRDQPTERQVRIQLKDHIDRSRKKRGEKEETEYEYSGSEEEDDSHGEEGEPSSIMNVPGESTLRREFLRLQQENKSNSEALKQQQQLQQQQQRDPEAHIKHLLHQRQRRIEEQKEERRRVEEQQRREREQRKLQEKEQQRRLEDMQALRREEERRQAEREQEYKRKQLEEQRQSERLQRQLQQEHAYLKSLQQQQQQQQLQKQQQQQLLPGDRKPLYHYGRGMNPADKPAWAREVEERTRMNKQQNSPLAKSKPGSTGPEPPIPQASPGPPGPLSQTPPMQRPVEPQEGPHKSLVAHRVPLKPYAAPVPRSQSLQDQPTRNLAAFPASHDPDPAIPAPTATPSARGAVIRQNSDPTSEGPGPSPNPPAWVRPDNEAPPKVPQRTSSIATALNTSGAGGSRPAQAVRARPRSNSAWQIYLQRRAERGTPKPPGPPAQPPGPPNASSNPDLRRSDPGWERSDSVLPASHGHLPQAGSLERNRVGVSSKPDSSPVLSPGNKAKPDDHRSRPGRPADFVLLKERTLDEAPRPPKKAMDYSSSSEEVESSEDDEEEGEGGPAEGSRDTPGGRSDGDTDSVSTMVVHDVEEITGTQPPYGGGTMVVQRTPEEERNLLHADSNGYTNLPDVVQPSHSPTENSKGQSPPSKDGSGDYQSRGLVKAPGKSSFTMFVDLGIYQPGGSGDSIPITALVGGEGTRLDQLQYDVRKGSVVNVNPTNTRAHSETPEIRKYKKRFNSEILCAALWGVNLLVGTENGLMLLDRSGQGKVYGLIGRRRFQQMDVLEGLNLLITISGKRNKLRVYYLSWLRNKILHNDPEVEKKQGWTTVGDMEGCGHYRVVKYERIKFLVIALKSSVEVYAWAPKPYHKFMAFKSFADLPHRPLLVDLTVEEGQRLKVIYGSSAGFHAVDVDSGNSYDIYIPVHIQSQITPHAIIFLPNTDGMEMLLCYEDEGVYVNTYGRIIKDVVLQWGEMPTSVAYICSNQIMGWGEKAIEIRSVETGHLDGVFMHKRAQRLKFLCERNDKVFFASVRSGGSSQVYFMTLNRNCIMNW
UniProt P54646, sequence (P54646 whole entry, looked up): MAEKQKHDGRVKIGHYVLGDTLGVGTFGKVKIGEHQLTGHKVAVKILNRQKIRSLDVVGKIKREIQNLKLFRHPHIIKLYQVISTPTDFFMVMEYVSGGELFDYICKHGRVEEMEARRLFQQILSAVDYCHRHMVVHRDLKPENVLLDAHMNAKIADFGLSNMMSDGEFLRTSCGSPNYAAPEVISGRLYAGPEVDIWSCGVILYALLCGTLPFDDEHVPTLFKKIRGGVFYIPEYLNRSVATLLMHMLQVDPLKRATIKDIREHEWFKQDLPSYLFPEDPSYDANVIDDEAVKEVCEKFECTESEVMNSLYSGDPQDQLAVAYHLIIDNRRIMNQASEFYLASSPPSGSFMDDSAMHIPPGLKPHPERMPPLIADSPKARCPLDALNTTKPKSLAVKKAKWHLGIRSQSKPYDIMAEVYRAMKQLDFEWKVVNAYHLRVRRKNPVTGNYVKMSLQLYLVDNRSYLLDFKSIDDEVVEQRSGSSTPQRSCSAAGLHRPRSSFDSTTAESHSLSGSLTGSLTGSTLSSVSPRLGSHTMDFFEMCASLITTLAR
UniProt P50613, sequence (P50613 whole entry): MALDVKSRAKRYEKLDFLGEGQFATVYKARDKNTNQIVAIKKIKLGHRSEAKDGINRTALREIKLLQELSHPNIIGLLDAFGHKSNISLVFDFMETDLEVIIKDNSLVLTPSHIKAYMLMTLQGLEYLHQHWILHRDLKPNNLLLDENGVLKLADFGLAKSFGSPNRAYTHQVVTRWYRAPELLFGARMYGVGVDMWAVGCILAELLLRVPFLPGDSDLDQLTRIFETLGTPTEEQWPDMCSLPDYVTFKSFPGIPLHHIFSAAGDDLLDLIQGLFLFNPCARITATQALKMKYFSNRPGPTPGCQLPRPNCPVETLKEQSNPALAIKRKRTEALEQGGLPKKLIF

With `CC(C)n1cc(-c2cc(-c3ccc(CN4CCOCC4)cc3)cnc2N)nn1` the inhibition [1] was 1%, the inhibition [2] was 10.1% and the inhibition [3] was -7.8%. It also gave an inhibition [4] of 4.3%, an inhibition [5] of 22.3% and an inhibition [6] of 14%. It also gave an inhibition [7] of 10.4%, an inhibition [8] of -5.2% and an inhibition [9] of -2.2%. For the same compound, the inhibition [10] was 2.5%, the inhibition [11] was -6.4% and the inhibition [12] was -0.7%. The inhibition [13] was -6.4%, the inhibition [14] was 14.3% and the inhibition [15] was -0.3%. For the same compound, the inhibition [16] was 12.6%, the inhibition [17] was 27.5% and the inhibition [18] was -2.3%. The inhibition [19] was 23.9%, the inhibition [20] was 0.1% and the inhibition [21] was 29.1%. For the same compound, the inhibition [22] was 7.3%, the inhibition [23] was 14% and the inhibition [24] was 20.5%. It also gave an inhibition [25] of 23.2%, an inhibition [26] of -2.1% and an inhibition [27] of -5.8%. It also gave an inhibition [28] of 29.2% and an inhibition [29] of 29.1%.
